Results: the antibiotic and cytotoxicity screens of Wong et al. (2023)
Some of the results follow.

Columns and labels:
[1] = tested on: HSkMC (human skeletal muscle cells); test: cytotoxicity call (relative viability < 0.9); details: 10 µM
[2] = tested on: HepG2; test: cytotoxicity call (relative viability < 0.9); details: 10 µM
[3] = tested on: S. aureus RN4220; test: growth inhibition call (relative growth <= 0.2); details: 50 µM

| Structure (SMILES) | cytotoxicity call [1] | cytotoxicity call [2] | growth inhibition call [3] |
| --- | --- | --- | --- |
| C[C@@H]1CCCCO[C@@H](CN(C)CC2CCCCC2)[C@H](C)CN([C@@H](C)CO)C(=O)c2cc(NC(=O)Nc3ccc(C(F)(F)F)cc3)ccc2O1 | active | active | inactive |
| C[C@H]1CN([C@@H](C)CO)C(=O)c2cc(C#CC3(O)CCCC3)cnc2O[C@H]1CN(C)C(=O)C1CCOCC1 | inactive | inactive | inactive |
| C[C@@H]1CN([C@H](C)CO)C(=O)c2cc(NS(=O)(=O)c3ccc(Cl)cc3)ccc2O[C@H]1CN(C)Cc1ccc(C(=O)Nc2ccccc2N)cc1 | inactive | inactive | inactive |
| C[C@@H]1CCCCO[C@@H](CN(C)Cc2ccccc2)[C@H](C)CN([C@H](C)CO)C(=O)c2cc(NC(=O)c3ccccc3)ccc2O1 | inactive | inactive | inactive |
| O=C(N[C@H]1CC[C@H](CC(=O)N2CCOCC2)O[C@@H]1CO)c1ccccn1 | inactive | inactive | inactive |
| C[C@H](CO)N1C[C@H](C)[C@H](CN(C)C(=O)Nc2ccc3c(c2)OCO3)OCc2cn(nn2)CCCC1=O | inactive | inactive | inactive |
| C[C@H]1CN([C@@H](C)CO)C(=O)Cc2cc(NC(=O)CCC(F)(F)F)ccc2O[C@@H]1CN(C)Cc1ccc(Cl)c(Cl)c1 | inactive | inactive | inactive |
| C[C@@H]1CN([C@@H](C)CO)C(=O)Cc2cc(NC(=O)c3ccncc3)ccc2O[C@@H]1CN(C)Cc1ccc(Oc2ccccc2)cc1 | inactive | active | inactive |
